According to paper PMC10668032:
Some of the results follow. At the low end of the ranking, values are background and their order means little.

Molecular target: SIX1-Q177R homeodomain (UniProt Q15475)
Test: universal protein binding microarray
Conditions: Universal all-10-mer PBM (8x60K, AMADID 030236), 300 nM GST-tagged protein, Alexa Fluor 488 anti-GST; buffer, salt, pH and temperature not stated; high values mean tight binding; most listed sequences are background and not binding sites; double strand, one strand shown

Sequence | binding signal [E-score]
TCATGTCA | -0.0841
AACCCGTG | 0.23
GTATTCGA | 0.0412
AACCTGGG | 0.0382
ACACGTTC | 0.276
ACAGCTGG | -0.236
CAGCTTAA | -0.13
AATGTAAA | -0.171
CACGCGCG | 0.0814
CGACTGGC | -0.0766
CCTGCCTA | -0.0787
GAGTTTTA | -0.189
AAGTAACA | 0.146
CAGGACAC | 0.423
GACAGGAA | -0.164
AACATCGC | -0.0882
AGCCCTTG | -0.147
GCTCGCCC | -0.0296
CATTTCGG | -0.232
CCCGGAGC | 0.00308
AAACCTAA | -0.244
TAACTAGA | 0.0854
GGATTGGA | 0.0345
CACTAGTG | 0.343
ACGGGTCG | 0.224

Sequence | binding signal [E-score]
CTATTATA | -0.161
CACCGGGG | 0.256
CGGCGACG | 0.0171
AGTCCCGG | -0.119
CAGATTGG | -0.00897
CTGTGAAC | 0.0971
CCCTTAAA | 0.091
CTTTCGGA | -0.139
CAACGTTC | -0.172
AATCTCCC | 0.0343
CGCGTCTC | 0.039
CATAGGAG | -0.121
ATTGACGA | -0.0182
CCTTGTCC | -0.0305
CGCCCGGA | 0.00537
CACCTTCA | 0.241
AAAGCTGG | -0.241
ACGCCTCT | 0.0685
CACGATAC | 0.335
ACGCGCAG | 0.175
AATGGGCA | -0.122
ATCAGTCG | -0.188
GCTAGGTA | 0.0331
CATTTAAC | -0.037
CCCCCATC | 0.0764

Sequence | binding signal [E-score]
CCCTACAA | 0.0828
ATTGTTTC | -0.17
GGGCAACA | 0.094
CGTATAAG | -0.125
CGGTCGTC | -0.116
CATACGAC | -0.0328
GCACTTCA | 0.0839
CTTGTTGA | -0.00195
CGGCTTAA | -0.0226
CGGTGAAA | -0.0361
CTCGTCGC | -0.276
ACCGGCGG | 0.126
ACCTGAGT | 0.0135
GGAAATAA | -0.215
ATGATCCA | -0.011
AACGAACC | -0.0406
GGTTGGCA | 0.0237
AATAATGC | 0.0393
CACACTTC | 0.205
CCGCAGGA | -0.115
GTGTTGTA | 0.389
CGCAAGCG | -0.0974
TATTAAGA | -0.0906
AACTCCAA | 0.0589
CCACGGAG | 0.102

Sequence | binding signal [E-score]
ACGAAGCA | -0.0672
ATACAAGA | -0.206
AAAATTTC | -0.168
GACATCAC | -0.121
GGAGAACC | 0.0409
CTCCTGTA | -0.0426
ACTGGACC | -0.161
CATCGGTC | -0.189
CTGACGCC | 0.185
ACGGTACC | -0.0615
AACGGCAT | -0.149
AAGTGTGA | 0.188
CGCAGCGC | -0.192
AAGACTGG | 0.0509
CCGTACCC | 0.158
TAGTCTCA | -0.227
CTCACTTC | -0.0954
TAGGGAGA | -0.00983
CGTGGAAC | -0.119
AGTTAATC | -0.0686
GCAGATAA | -0.125
ATGACATC | -0.154
CTAGTTGC | -0.24
ATTGGAGC | 0.0339
CACATGGC | -0.155

Sequence | binding signal [E-score]
GGTTGATA | 0.0259
AATGTCCT | -0.0227
TCTTTGAA | -0.262
ACGCTCAG | 0.143
AGCAACTA | -0.136
GGCCTCCC | -0.204
AAATACAA | -0.114
ACATAGCT | -0.216
ACCTTCGC | -0.0318
AATGTCCG | -0.177
ACTAATTC | -0.0618
TTGACCAA | -0.0546
ATGAAGTA | -0.0128
CTGTCAGA | 0.0241
CTATCGAG | -0.0352
AGTGAACC | -0.0634
AATTTCAA | -0.159
TACAGTAA | 0.126
CCGCCTCG | -0.0193
ACGCAACC | 0.00098
CACAATTA | -0.00716
AAGCGCGA | 0.074
AGTAATCA | 0.0946
CCTAGGAA | -0.0905
CAGTCCAG | -0.0569

Sequence | binding signal [E-score]
ACCGAGTC | 0.0476
CGTCTCAA | 0.00928
CCTTTACC | 0.0699
CGTCACAA | 0.0469
CGCGCTCC | -0.00201
AGTCATAC | -0.0579
TCGTCAAA | -0.027
AGCATCCC | -0.203
AGATGAAT | -0.182
AACGAAAT | -0.312
CCATTCCG | -0.14
GGTAGAGA | -0.061
GAACGGTA | -0.0771
AGGTTTAA | 0.0833
GAACCCAA | -0.0198
GAGGTTGC | -0.0848
CATCACTC | -0.0219
AATGAAGC | -0.269
AAATTCTA | -0.189
CAAGTCCC | -0.198
TACGAAGA | -0.109
CTGACTAA | -0.247
CACCTTAC | 0.248
AATATTTA | -0.0862
CACGGTGG | 0.26

Sequence | binding signal [E-score]
AAAGACGT | -0.321
GTCGCCTA | 0.0326
TAACCATA | -0.207
CCTCGCCG | 0.132
ATCGTGTG | 0.229
CAAGGGCG | -0.0931
AAGATAGA | -0.114
AAGTCTTG | -0.323
CGTATGGC | -0.222
CTCCGTGC | 0.083
AGAAAGAC | -0.154
AGCATGGC | -0.385
ACCTGCGT | 0.0793
CTAAAGCA | -0.11
CCCCCAGC | 0.0476
CAGCGTCA | 0.0509
TAACAGTA | -0.243
GGGATCAA | 0.189
ATCCTGAC | 0.0853
ATGTAGCA | -0.248
CGCAACCG | -0.041
AAACCGGC | 0.0182
